{
  "source": "PubChem BioAssay (NCI)",
  "assay_in_all_cases": "NCI anticancer screen, dose series, 48 h",
  "key": {"[1]": {"system": "SR leukemia"}, "[2]": {"system": "HL-60(TB) leukemia"}, "[3]": {"system": "A498 renal"}, "[4]": {"system": "MALME-3M melanoma"}, "[5]": {"system": "RXF 393 renal"}, "[6]": {"system": "KM20L2 colon"}, "[7]": {"system": "HCT-116 colon"}, "[8]": {"system": "COLO 205 colon"}, "[9]": {"system": "DLD-1 colon"}, "[10]": {"system": "HCC-2998 colon"}, "[11]": {"system": "SF-539 CNS"}, "[12]": {"system": "SK-MEL-5 melanoma"}, "[13]": {"system": "SF-268 CNS"}, "[14]": {"system": "SNB-75 CNS"}, "[15]": {"system": "OVCAR-8 ovarian"}, "[16]": {"system": "NCI-H460 lung"}, "[17]": {"system": "DMS 114 small cell lung"}},
  "note": "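Step 1: Grow cells in 96-well plates. Step 2: Expose to compound for 48 hours at 5 concentrations. Step 3: Interpolate endpoints linearly; if unreached, use highest concentration. TGI marks complete inhibition of growth.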 For part of its entries the source gives two or more results. This list holds those alone. There may be further records. Records of one sample usually come from different ranges of test concentrations, which the source does not state; a value can be the end of its range.",
  "data": [
    {"smiles": "CC1CCC(NC(=O)N(CCCl)N=O)CC1", "note": "(configuration not stated)", "values": [
      {"measurement": "TGI", "setting": "[1]", "result": "5.04 µM and 185 µM"}
    ]},
    {"smiles": "CCC(C)(CC(C)(C)C(=O)NCC(=O)NC(Cc1ccccc1)C(=O)NC(Cc1ccccc1)C(=O)NCC(=O)NC1CC(OC2CC(O)(C(=O)CO)Cc3c(O)c4c(c(O)c32)C(=O)c2c(OC)cccc2C4=O)OC(C)C1O)C(=O)NCC(C)O", "note": "(configuration not stated)", "values": [
      {"measurement": "TGI", "setting": "[2]", "result": "3.85 µg/mL and > 150 µg/mL"}
    ]},
    {"smiles": "COc1cc2c(c(OC)c1OC)-c1ccc(SC)c(=O)cc1C(CO)C2", "note": "(configuration not stated)", "values": [
      {"measurement": "TGI", "setting": "[3]", "result": "452 nM and > 100 µM"},
      {"measurement": "TGI", "setting": "[4]", "result": "925 nM and > 100 µM"},
      {"measurement": "TGI", "setting": "[5]", "result": "588 nM and < 10 nM"},
      {"measurement": "TGI", "setting": "[6]", "result": "321 nM and < 10 nM"},
      {"measurement": "TGI", "setting": "[7]", "result": "380 nM and > 100 µM"},
      {"measurement": "TGI", "setting": "[8]", "result": "433 nM and < 10 nM"},
      {"measurement": "TGI", "setting": "[9]", "result": "771 nM and > 100 µM"},
      {"measurement": "TGI", "setting": "[10]", "result": "443 nM and 36.2 nM"},
      {"measurement": "TGI", "setting": "[11]", "result": "373 nM and < 10 nM"},
      {"measurement": "TGI", "setting": "[12]", "result": "894 nM and > 100 µM"},
      {"measurement": "TGI", "setting": "[13]", "result": "761 nM and > 100 µM"},
      {"measurement": "TGI", "setting": "[14]", "result": "198 nM and > 100 µM"},
      {"measurement": "TGI", "setting": "[15]", "result": "392 nM and > 100 µM"},
      {"measurement": "TGI", "setting": "[16]", "result": "785 nM and 15 µM"},
      {"measurement": "TGI", "setting": "[17]", "result": "332 nM and < 10 nM"}
    ]}
  ]
}
